# In all, about 2,300 sequences were measured (“median log2 fold change of GCK-ALFA target abundance (FLAG IP / Myc IP barcode read proportion)”: median about 0.095, lowest 2% from about -0.47 on). The list shows a part of the results.
# B1: LC3A_free_26_2164 (protein)
# chain: EEFVNIADIDEALDLLEEALALLPPDDPRLAELRRLLEEAIRLVEKETLESLERARELLLEARALVEADPSLSPETRERLLALLDEAIAHVESNIEILKS
# B2: LC3A_3_1448 (protein)
# chain: AEELKEKGLKLLEERGASEETIEAAKELFDELIKKGYLESMKVVLEFLEKVKNASDEFLLEMFEDLLELVKTTDASPEEMTKLIKEELNAFESELEIEEL
# B3: LC3A_free_39_2266 (protein)
# chain: SMEEKKKAMEELEKIAEKFDEETREAILELAELLKDNVEALKKLAELAEEALKKGEKTVKILGEIAKEAVERIKAGEDKEKVAEEFFKLAKNAIEIEEID
# B4: LC3A_3_1492 (protein)
# chain: MPELLERVRAELERAGASPEEIARVLAAAEELLARGYEETVEKIIELIRKYKDLSPRDLVAAALTTADIAIEENLSEEEAVKKAEEIFEDVAEIEALDEE
# B5: LC3A_28_981 (protein)
# chain: NAMEKELEEKLEEARKYAEAGEPAVITIKVPGTTNEEQAEKIIETLEEIAEILKNIKGSAIIIDIDKGVKEELKNRLIDKAEEIEEKYPNVTVIIALEEE
# B6: LC3A_28_1253 (protein)
# chain: MEVEESIKKALAEAEAAVAKGEEALVTIKVPAGITEEEVEKVIEAMEEIAEKTKSLPKTTILIDVEAGVPQEAIDKLADKGEELEKKYPHLTVILALEEE
# B7: LC3A_3_1386 (protein)
# chain: MEEKREEALERLREAGHSEEVIEAARRALEALIEKGYEEAYETLIELLDELIHLPDELLLELFEEVLELIETEDIDEEELTERIKEIASVFRNESEIEEL
# B8: LC3A_28_912 (protein)
# chain: SAIEEATAAAIAQIRADAAAGEPAVVTLDAEHEDVEEAERLTREALERLEEEMLKHDGVTLIVDVPGHNAEAITRVADEADERLRERNPSNHIIVALDEE
# B9: LC3A_3_1811 (protein)
# chain: MEERLERALEELRAAGASEETLEAVREAVELLLEKGYEEAAETFLELMLELKHLPSELLLEMAEEVLELVKTSDLSEEEITEEIKRIARTVRHEGEIIEL
# B10: LC3A_141_383 (protein)
# chain: MKKEFEMEATKETADEVFKFMEEVEKETLEMIKESGGKPVKMKVKITATNEKTGEVVEKEEEYIVTEENADLVADGIEIEVLSLLDRVGGKVKVKVTLES
# B11: LC3A_free_46_2321 (protein)
# chain: YKAEIDIDIDGVNEEDAKKLVEELKKEIKKIAEKYGLKVEIEVEIEKNEDGTYFVRINVTLEGENEEDLKKAVNEIIEKSEELAEKYGASVVISYEIEKK
# B12: LC3A_free_46_2404 (protein)
# chain: YRGTILIDALAESREKAEEFAKEIEKAAKEIAKKYGAEVEIKVEIEELPDGTVFVRIEIVVKAETEEKLKKFVNDLIEEIDKIAEKLGVSYIISYEIEKE
# B13: LC3A_28_1334 (protein)
# chain: STADKIIAEANAQIKAVAASGKPSVIVVDIPGSMTAEEARRVATAVKEAAKKEKLPKGTAIIFSFDASVSQEVIDVVADEAEELEKEVPGITVIIALDEN
# B14: LC3A_3_1464 (protein)
# chain: AEELLKEAREILEKQGASEETIKAAEELLEALAKKGYEKAMETLVKKLKEMKDVSSEILLATLKDLLHIVKTQDLDEEEIVKEIEREFSAAKAEQEIIEL
# B15: LC3A_17_578 (protein)
# chain: SAEVKALYERALKVMEKAAKFAAKHDAAAAAKIKALIAEAKAAAKTGDDREILETIARLMDEVANILDSLEPLDPEEASLLSMEADGVAIEAESLLLKLE
# B16: LC3A_3_1806 (protein)
# chain: AEERIEALLARLRAAGASPETIEAARRALTLLAERGYEEALETLIEELERLLDAPDELLLDLLERVLEFLETNDASEEEVKEFIEEEARLAENESEIIEL
# B17: LC3A_28_1323 (protein)
# chain: SHIKEELEKAEKEAEEQAAKGEDITLTVKITGSTTLEEAKEMMEKLEEIAEKYAPKRKVNIIIDLDGKVKQEVIDLISEKAEEIEKKYPNVTVIIALDEE
# B18: LC3A_147_459 (protein)
# chain: MVVEVDLIVKSEKAVEEIKADFEALVAELKARGYDVELEIEVEKLDENTYYVRVTIRVKAETKEEAERIKNEILSRVDEIIEKHKDEILGALISAEFEEP
# B19: LC3A_28_1310 (protein)
# chain: TPIEERLAAARAEAEEAAARGEPVVVTIPITAEEAEKNLELILAGLEELGEVASRVPDAAIIIDVDEKVDPEHLTKIAERAEEIEERYPNVTVIIAIEDN
# B20: LC3A_28_918 (protein)
# chain: MTPEEIKAAIKAAVDKAIAEGKEAHIEIEIGSDTTPEEAREIMEALRKEVARAAAAGLEVDITVDLDDVSQEVLDIVADALDEIEEEYPKASAIIALDED
# B21: LC3A_3_1569 (protein)
# chain: SEERIEAALARLREAGFSEEVIAAARKALEALAAKGAYEAMDRFVDAMLEMKDAPEELLIAFAEDVLEIVETSKDDLETIQKKIDEEITIYLNESEIIEL
# B22: LC3A_3_1555 (protein)
# chain: MEELREETLEELRRAGASEEVLEAARETLEALEARGYEEAARTLVEEVREMLDLPDEILLDFLEEVRELIETEDLDEETVIERIRELATIARNEGEIEEL
# B23: LC3A_3_1719 (protein)
# chain: MEEIIEEIIETLKKQGRSEETIEAARKLAEALKEKGYLEALKTLLELLKEAKDISDEIMLDMLKELLYIVENEDLSEEELIKKIKEEFKVAKLEEEIEEL
# B24: LC3A_45_1971 (protein)
# chain: MARVTIHLLVPREKAEEALRIIREEFERLEEEYGGKIEFDREALEASYEASKDEEEVYLEVIITAETRELALDAADRIVDTLNERLGENVAAIIEVEELP
# B25: LC3A_17_551 (protein)
# chain: KEEIKKELEKLLKELEKLVKKLEEYDPEKAKKLKKKLEEAKKLLEEGKLEEAAKLLAETADELANVFDELEPKYGVEASVLSMEASGLELEAIGLLLKLE
# B26: LC3A_147_415 (protein)
# chain: MTVEVSIDLLGRLSDEEIEELVEELKKVGEEFGAEVEVKVRVEDLPGGRRYVEIDITLKGVEKEKAQPLINALIDTVDKFVEKYKDKIDGALISSEAIED
# B27: LC3A_free_8_2519 (protein)
# chain: KSKAFAQRVVAILEELEKEIVKLLKEKGASRLDILEAELLIGSIIAEVISLQDKSPEEIIKAVKEGLKELVEELEKYKEEVKKLAEEALKKIEAAKKELE
# B28: LC3A_3_1804 (protein)
# chain: SEEKIKELLEKLKEAGKSEETIEAVREALEKLKERGYEEALKTFIEEMEELIDVPDELLLRLAKDVLEYLETNDDSEEETKEFIKEEARLTKLEAEIEEL
# B29: LC3A_102_140 (protein)
# chain: SLEEKVEEKIKELLEEMKKFLEKDKSLSEEEKKEILELTEKALKAAAKNTITELQHGYTDIVAEDELLENLEKLKKISEKVAEKAKELIKKLEEYIKKLL
# Biological target: MAP1LC3A, Q9H492
# Assay: median log2 fold change of GCK-ALFA target abundance (FLAG IP / Myc IP barcode read proportion) (log2 ratio); each designed protein is fused to an ALFA-tag nanobody in HEK293 cells to bring the named protein to FLAG-tagged glucokinase (GCK); Myc marks an untargeted standard; higher = target protein stabilised (more abundant)
# Conditions: target protein: 3xFLAG-MCP-GCK-ALFA reporter; HEK293 landing pad (RPLP)
# In short: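 Sequencing of reverse-transcribed, amplified circular RNA barcodes from anti-FLAG and anti-Myc immunoprecipitates provided the readout for an ALFA-nanobody-fused binder library recombined into HEK293 landing-pad cells. Those cells were induced with 2 μg mL^−1 doxycycline, transfected with a plasmid expressing a FLAG-tagged target and a Myc-tagged standard, and lysed after 48 h. Target abundance is the per-binder median log2 ratio of FLAG to Myc barcode read proportions. Only barcodes at a proportion of ≥10^−7 in both replicates and binders with ≥3 barcodes per replicate were kept, with a 10^−6 pseudocount added before the two replicates were pooled.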
row,Binder,median log2 fold change
1,B1,0.0771
2,B2,0.129
3,B3,0.265
4,B4,0.123
5,B5,-0.14
6,B6,0.203
7,B7,0.167
8,B8,0.318
9,B9,0.225
10,B10,0.328
11,B11,0.328
12,B12,0.027
13,B13,-0.0393
14,B14,0.332
15,B15,-0.0942
16,B16,0.0118
17,B17,0.19
18,B18,-0.008
19,B19,0.0746
20,B20,0.108
21,B21,0.227
22,B22,0.181
23,B23,0.0215
24,B24,-0.000266
25,B25,-0.051
26,B26,-0.146
27,B27,-0.243
28,B28,0.12
29,B29,0.288
